Test results from publication PMC4336329 (PLoS ONE, 2015).
Among all 310,000 compounds or so, about 2,200 (0.71%) showed an effect of 50% or more. Effects have a minus sign here. This is one part of the list.

Biological target: human ether-à-go-go-related gene (hERG) potassium channel (human, UniProt Q12809)
Test: primary screen, population patch clamp on CHO cells stably expressing hERG

human ether-à-go-go-related gene (hERG) potassium channel, sequence (Q12809 whole entry, looked up): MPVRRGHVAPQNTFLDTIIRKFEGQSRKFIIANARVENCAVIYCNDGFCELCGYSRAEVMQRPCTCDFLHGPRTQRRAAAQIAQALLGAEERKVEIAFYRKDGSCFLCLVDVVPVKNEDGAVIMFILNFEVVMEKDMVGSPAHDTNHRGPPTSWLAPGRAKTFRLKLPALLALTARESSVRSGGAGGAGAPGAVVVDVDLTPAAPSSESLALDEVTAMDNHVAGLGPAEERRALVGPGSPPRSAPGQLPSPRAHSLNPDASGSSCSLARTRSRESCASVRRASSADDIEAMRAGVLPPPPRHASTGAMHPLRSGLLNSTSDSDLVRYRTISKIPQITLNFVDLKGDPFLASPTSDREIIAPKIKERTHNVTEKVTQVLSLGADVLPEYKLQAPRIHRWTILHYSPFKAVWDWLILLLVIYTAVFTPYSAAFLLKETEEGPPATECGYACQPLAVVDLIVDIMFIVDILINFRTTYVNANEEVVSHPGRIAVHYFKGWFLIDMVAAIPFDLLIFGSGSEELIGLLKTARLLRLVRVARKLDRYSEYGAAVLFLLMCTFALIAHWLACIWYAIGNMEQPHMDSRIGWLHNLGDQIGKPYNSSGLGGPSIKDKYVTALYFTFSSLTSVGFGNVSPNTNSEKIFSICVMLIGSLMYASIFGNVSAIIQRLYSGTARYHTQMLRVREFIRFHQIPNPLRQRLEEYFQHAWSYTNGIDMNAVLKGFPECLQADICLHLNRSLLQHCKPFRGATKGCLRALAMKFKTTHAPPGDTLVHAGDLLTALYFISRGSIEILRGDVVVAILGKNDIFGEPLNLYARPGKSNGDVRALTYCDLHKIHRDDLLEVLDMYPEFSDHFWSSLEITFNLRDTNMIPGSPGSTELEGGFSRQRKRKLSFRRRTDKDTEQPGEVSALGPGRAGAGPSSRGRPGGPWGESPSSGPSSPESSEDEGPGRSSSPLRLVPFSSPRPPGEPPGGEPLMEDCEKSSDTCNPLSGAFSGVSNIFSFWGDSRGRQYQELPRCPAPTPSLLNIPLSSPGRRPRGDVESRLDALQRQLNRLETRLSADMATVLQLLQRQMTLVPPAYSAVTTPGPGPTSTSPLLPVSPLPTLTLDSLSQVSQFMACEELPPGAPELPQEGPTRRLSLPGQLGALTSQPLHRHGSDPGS

SMILES | hERG current change (%, negative = inhibition) at 1uM [%]
CN(c1ccc(C(=O)NCCSCc2ccccc2)cc1)S(=O)(=O)c1ccccc1 | 9.97
CC1=C(C(=O)OC2CCCCC2)C(c2ccc(O)cc2)NC(=O)N1 (stereo not drawn) | 13
COc1cccc(CNC(=O)CCNC(=O)N2CCn3c2nc2ccccc23)c1 | 22.3
CC(C)Nc1ccc(C(CC(N)=O)NC(=O)Cc2ccc(Cl)cc2)cc1[N+](=O)[O-] (stereo not drawn) | 10.9
C=CCOc1ccc(/C=C/C(=O)OCC(=O)NCCC2=CCCCC2)cc1 | 13.3
CCc1ccc(-n2c(SCc3c(C)noc3C)nnc2-c2ccncc2)cc1 | -2.1
O=C(O)c1cc(-c2ccc(Cl)s2)[nH]n1 | 6.26
Cc1nn(C)cc1CNC(=O)c1ccccc1Br | -0.58
Cc1ccc(C)c(S(=O)(=O)N2CCCOC2CNC(=O)C(=O)NCc2cccnc2)c1 (stereo not drawn) | 7.36
N#Cc1ccccc1Sc1ccccc1C(=O)Nc1ccccc1 | 8.9
Cc1ccccc1-n1c(N)c(C(=O)Nc2ccc(F)cc2)sc1=S | 6.6
Cl.O=C(CCN1CCOCC1)c1ccccc1 | 6.33
CCOc1ccccc1C(=O)Nc1cnn(Cc2ccc(F)cc2)c1 | 9.48
O=C(CCc1nnc2ccc(NCc3ccccc3)nn12)NCC1CCN(C2CCCC2)C1 (stereo not drawn) | 10.6
COc1cc(OC)c(C2=NOC(C(=O)NCc3cccs3)C2)cc1Cl (stereo not drawn) | -0.0437
CCOc1ccc(-n2c(COc3ccc(C)cc3)nnc2SCC(N)=O)cc1 | -0.543
CC(C)c1nc2oc3ccccc3c(=O)c2c(=O)n1-c1ccccc1 | 6.91
O=C1CSC(c2cn(-c3ccccc3)nc2-c2cc3ccccc3o2)N1Cc1ccccc1 (stereo not drawn) | 15.1
CCN(CC)CCNC(=O)Cn1cnc2sc(C)c(S(=O)(=O)N3CC(C)CC(C)C3)c2c1=O (stereo not drawn) | 19
O=C(COC(=O)c1ccc2ccccc2c1O)NCC(F)(F)F | -4.71
COc1ccc(/C=C\C(=O)CC(O)(c2ccccc2)C(F)(F)F)cc1 (stereo not drawn) | 9.07
O=C(/C=C/c1ccco1)Oc1ccc(C(=S)N2CCOCC2)cc1 | 7.78
COc1cccc(OCC(=O)NNC(=O)Cc2cccs2)c1 | 16

SMILES | hERG current change (%, negative = inhibition) at 1uM [%]
O=C(NCc1cccs1)c1cc2c(s1)CCCC2 | 7.37
O=C(Cn1nnc(-c2ccccc2F)n1)OCC(=O)c1ccccc1 | 20.1
CC(=O)Cn1cnc2c(sc3nc(C)cc(C)c32)c1=O | 14.4
COc1ccc(OC)c(C(=O)c2ccc(C(=O)N3CCN(Cc4csc(C)n4)CC3)cc2)c1 | 8.66
Cc1cc(C)n(C(=O)c2ccc(Cl)c(F)c2F)n1 | 10.6
CC(C(=O)N1CCN(C)CC1)N1C(=O)c2ccccc2C1=O (stereo not drawn) | 20.1
CCN(CC)C(=O)c1ccc(NC(=O)c2cccc(C(F)(F)F)c2)cc1 | 7.85
O=C1NC(CCc2ccccc2)C(=O)N1Cc1ccc(Br)cc1 (stereo not drawn) | 0.772
O=[N+]([O-])c1cccc(/C=N\N2CCN(c3ccc(Cl)cc3)CC2)c1 | 13.3
CC(=O)Oc1ccc(-c2ccc(C(=O)O)cc2)cc1 | 7.28
CC(C)C(c1nnnn1C1CCCC1)N1CCC(C(N)=O)CC1 (stereo not drawn) | 10.9
CCOc1ccccc1-n1c(SCC(N)=O)nnc1-c1ccco1 | -5.22
O=C(Cc1c(O)c2ccccc2[nH]c1=O)NCc1cccc(F)c1 | -1.24
O=[N+]([O-])c1ccc(N2CCN(Cc3ccc4c(c3)OCO4)CC2)nc1 | -29.2
COc1cc(/C=C/C(=O)OCC(=O)Nc2ccccc2Cl)cc(OC)c1OC | 12.5
COc1ccccc1-c1nc(SCC(=O)N2CCOCC2)n[nH]1 | 11.4
CCC(C)[C@H]1CN=C(N)N1CC1CCCCC1 (stereo partly drawn) | 16.2
C/C(=N\NC(=O)c1nc(C)cc(C)n1)c1ccccc1 | 2.61
CN(C)CCCNC(=O)/C(=C\C=C\c1ccccc1)NC(=O)c1ccc([N+](=O)[O-])cc1 | -42
CCOc1ccc(NC(=O)COc2ccc(C(=O)NCc3cccnc3)cc2OC)cc1 | 15
CCC(CO)Nc1ncnc2c1cnn2-c1ccc(Cl)cc1 (stereo not drawn) | 3.06
Cc1csc(CNC(=O)c2ccc(OC3CCN(CCc4ccccc4)CC3)cc2)n1 | 6.97
CN1C(=O)C(O)(CC(=O)/C=C\c2ccc3c(c2)OCO3)c2ccccc21 (stereo not drawn) | 8.53

SMILES | hERG current change (%, negative = inhibition) at 1uM [%]
C=CCNC(=S)NNC(=O)COc1ccc2cc(Br)ccc2c1 | 19.6
O=C(c1ccccc1)c1ccc(OCC(=O)N2CCOCC2)cc1 | 3.26
N#CC1=C(N)Nc2ncnn2C1c1ccc([N+](=O)[O-])cc1 (stereo not drawn) | -1.75
O=[N+]([O-])c1ncn(Cc2ccccc2Cl)n1 | 17.3
COc1ccccc1N1CCN(C(=O)c2ccc(N(C)S(=O)(=O)c3ccccc3)cc2)CC1 | 5.55
N#Cc1c2ncn(CC(=O)c3ccc(Br)cc3)c(=O)c2c2n1CCC2 | 6.49
CC(/C=C1\SC(=S)N(NC(=O)c2ccccc2C)C1=O)=C\c1ccccc1 | 10.8
O=C(O)COc1ccc(Nc2ccccc2)cc1 | 0.785
CCN(CC)c1ccc(NC(=O)c2ccccc2F)cc1 | 2.11
COc1ccccc1NC(=O)c1ccc(NC(=O)CN2C(=O)CN(C)C2=O)cc1 | 5.01
CCOC(=O)C1Cc2c([nH]c3ccccc23)C(C)N1.Cl (stereo not drawn) | 9.52
CCOC(=O)C1CCN(C(=O)c2ccc(OCC(=O)Nc3cccc(C(F)(F)F)c3)cc2)CC1 | -4.74
CC1CCN(C(=O)CSCc2ccc(Cl)cc2)CC1 | 11.3
O=C(Nc1ccc(Oc2ccccc2)cc1)c1cnc2n(c1=O)CCS2 | 20.6
COc1ccc(C(=O)N2CCCC(CCC(=O)N3CCN(c4ccccn4)CC3)C2)cc1 (stereo not drawn) | -3.04
N#Cc1cc2c(=O)n3ccccc3nc2n(CCCN2CCOCC2)c1=O | -7.49
COc1ccc(C(=O)c2c3ccc(C(F)(F)F)cc3[n+]([O-])n2CCC[NH3+])cc1.[Cl-] | -63
Cc1cc[n+](-c2[nH]c(=O)sc2/C=N/NC([S-])=Nc2ccccc2)cc1 | 1.35
Cc1cc(=O)[nH]c(SCC(=O)N2CCCCC2)n1 | 11.2
CC(=O)Nc1ccc(Cl)c(C(N)=O)c1 | 12.8
CC(=O)c1ccc(NC(=O)C(Cc2ccccc2)NC(=O)c2ccco2)cc1 (stereo not drawn) | -3.17
COc1cc(-c2nnc(COC(=O)c3ccc(C)o3)o2)cc(OC)c1OC | 13.9
COc1cccc(NC(=O)CN2CCN(S(=O)(=O)c3ccc(C(C)C)cc3)CC2)c1 | -4.1

SMILES | hERG current change (%, negative = inhibition) at 1uM [%]
Clc1ccc(-n2ncc3c(NCc4ccco4)ncnc32)cc1 | 1.14
O=C(CSc1ncc(-c2ccc(F)cc2)[nH]1)NCc1ccco1 | 5.59
CC(CN1CCOCC1)OC(=O)c1ccccc1.Cl (stereo not drawn) | 12
CCCSCCCNC(=O)CC1Oc2ccccc2NC1=O (stereo not drawn) | 4.39
CN(C)NC(=S)Nc1cccc(C(F)(F)F)c1 | 6.04
COc1ccc(-n2cccc2C=O)cc1 | 6.98
Cc1ccc(-c2csc(NNC(=O)c3ccccc3)n2)cc1 | 4.75
COc1cccc(NC(=O)N(Cc2ccco2)C(C)c2cccs2)c1 (stereo not drawn) | 11.7
COc1ccc(CC(=O)n2nc(-c3ccc(Cl)cc3)nc2NCc2ccco2)cc1 | 2.82
COC(=O)c1ccc2c(=O)n(-c3ccccc3F)c(=S)[nH]c2c1 | 3.81
O=C(c1ccc(F)cc1)N1CCC(c2ccccc2)C1 (stereo not drawn) | 14.7
CC(=O)c1c(C)oc2ccc(N(C(=O)C3CCCCC3)S(=O)(=O)c3cc([N+](=O)[O-])ccc3C)cc12 | 6.83
OC(c1cccs1)c1nccc2ccccc12 (stereo not drawn) | 0.742
CCN1CCN(c2c(Cl)cccc2NC(=O)c2ccc3nsnc3c2)CC1 | 12.5
COC(=O)CCC(=O)Nc1ccc(Cl)c(Cl)c1 | 7.38
Cc1ccc(CNC(=O)c2ccc(Cl)c(S(N)(=O)=O)c2)n1C | 9.41
COc1ccc(NC(=O)CC(C(=O)O)C(C)c2ccccc2)cc1 (stereo not drawn) | 15.2
COC(=O)c1ccccc1OP(=O)(c1cccc([N+](=O)[O-])c1)c1cccc([N+](=O)[O-])c1 | 7.95
CC(C)c1nnc(NC(=O)Cc2ccc(Br)cc2)s1 | 9.99
COCc1c(C(=O)OCc2nc(N)nc(Nc3ccccc3C)n2)oc2ccccc12 | 10.2
O=C(Nc1ccc(Cl)cc1)Nc1ccc(N2CCC(C(F)(F)F)CC2)nc1 | 5.39
